Source: PubChem BioAssay AID588855 (National Center for Advancing Translational Sciences (NCATS), 2011)
Among all 410,000 compounds or so, about 5,000 (1.2%) were called active. This list was built around the results that the source calls inconclusive (neither active nor inactive); the mix of calls is not that of the screen. Calls follow the shape of the dose curve; as a rule, active = well fitted inhibition curve with a large enough effect; inconclusive = small, poorly fitted or top-dose-only effect; inactive = no such curve, though single readings can be large or run the other way. Potencies of inconclusive entries are doubtful fits and often do not repeat.

test: qHTS for Inhibitors of TGF-b; details: HepG2 CAGA-GFP TGF-b/SMAD3 reporter, GFP fluorescence, 18 h, TGF-beta stimulated, 500 pg/mL final; series mostly up to 46.1 µM; activity, negative = inhibition: at the top concentration; also: nearly all actives have a fitted effect of over 65% in size
Outline: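 TGF-beta reporter screen: HEPG2 CAGA-GFP, 1% FBS, 500 pg/mL TGF-beta final, 18 h; per-cell GFP summed per well; curves fitted and categorized by class.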
% is scaled to controls: 0 for no effect and ±100 for the full control effect; potency is read from the fitted curve at half-maximal effect; tags tell the direction and shape of the fitted curve.

| SMILES | activity, negative = inhibition | Potency |
| --- | --- | --- |
| COc1cc(OC)c(NC(=O)c2ccccc2F)cc1Cl | inactive: 0.961% |  |
| CCOc1ccccc1N1CC(C(=O)Nc2cccc(S(=O)(=O)N3CCCCC3)c2)CC1=O (stereo unspecified) |  | inconclusive: 12.6 µM [inhibitor, single point] |
| Cc1ccc2cc(CN(Cc3ccco3)C(=O)NC3CCCCC3)c(=O)[nH]c2c1C |  | inconclusive: 35.5 µM [inhibitor, single point] |
| CC(=O)c1c(C(C)=O)c(C)n(-c2ccc(C)c(NC(=O)c3ccccc3Cl)c2)c1C |  | inconclusive: 35.5 µM [inhibitor, single point] |
| COCCNC(=O)C(=O)NCC1OCCCN1S(=O)(=O)c1cccs1 (stereo unspecified) | inactive: 0.147% |  |
| O=C(c1ccc2c(Cl)c3c(nc2c1)CCCC3)N1CCN(c2ccc(F)cc2)CC1 |  | inconclusive: 28.2 µM [inhibitor, single point] |
| Cc1ccc(CN2CC(C(=O)N(Cc3nnc(-c4ccccc4Cl)o3)C3CC3)CC2=O)cc1 (stereo unspecified) |  | inconclusive: 11.2 µM [inhibitor, partial curve] |
| CCOC(=O)c1sc(C)c2c1NC(C)(c1cccc3ccccc13)NC2=O (stereo unspecified) |  | inconclusive: 17.8 µM [inhibitor, single point] |
| Cc1ccc(C)c(NC(=O)c2cnn3ccccc23)c1 |  | inconclusive: 11.2 µM [inhibitor, partial curve, poor fit] |
| COC(=O)c1c(NS(=O)(=O)c2ccc(C)cc2)sc2c1CCC(C)C2 (stereo unspecified) |  | inconclusive: 35.5 µM [inhibitor, single point] |
| Cc1ccc(C)c(S(=O)(=O)NCc2ccc(C(=O)N3CCC(Cc4ccccc4)CC3)cc2)c1 |  | inconclusive: 35.5 µM [inhibitor, single point] |
| O=C(NCCCN1CCN(c2ccc(F)cc2)CC1)Nc1ccc([N+](=O)[O-])cc1 |  | inconclusive: 25.1 µM [inhibitor, single point] |
| CC(c1cccs1)N(Cc1ccco1)C(=O)Nc1ccc(Cl)c(Cl)c1 (stereo unspecified) |  | inconclusive: 1.41 µM [inhibitor, full curve] |
| COC(=O)C1=C(NC(=O)c2ccccc2C)CCS1 |  | inconclusive: 3.16 µM [inhibitor, partial curve, poor fit] |
| CCSc1ccc(-c2cc(NC=O)c3ncc(-c4cccc(C(=O)N(C)C)c4)n3c2)cc1 |  | inconclusive: 10 µM [inhibitor, partial curve, poor fit] |
| Cc1cccc(NC(=O)CCCN2C(=O)C(c3ccccc3)Oc3cccnc32)c1C (stereo unspecified) | inactive: -6.79% |  |
| CC(C)c1cccc(-c2ccc3c(c2)S(=O)(=O)c2cccc(C(=O)NCc4ccco4)c2C3=O)c1 |  | inconclusive: 3.98 µM [inhibitor, single point] |
| O=C(OCc1ccccc1)/C(=C/c1ccc(Cl)cc1)NC(=O)c1ccccc1Cl |  | inconclusive: 2.51 µM [inhibitor, full curve, poor fit] |
| COc1ccc(C(NC(=O)C2CCN(CCCOc3ccccc3)CC2)c2cccs2)cc1 (stereo unspecified) |  | inconclusive: 15.8 µM [inhibitor, single point] |
| COc1ccc(NC(=O)CSCc2cnn(-c3ccccc3)c2-n2cccc2)cc1 | inactive: -7.55% |  |
| COC(=O)c1ccc(CNC(=O)CSc2nnc(COc3ccccc3)n2C)o1 |  | inconclusive: 5.01 µM [inhibitor, full curve] |

| SMILES | activity, negative = inhibition | Potency |
| --- | --- | --- |
| Cc1cccn2c(=O)c3cc(S(=O)(=O)c4ccccc4)c(=N)n(Cc4cccnc4)c3nc12 | inactive: -3.81% |  |
| O=[N+]([O-])c1cc2cccnc2c2ncccc12 |  | inconclusive: 11.2 µM [inhibitor, partial curve, poor fit] |
| CC(=O)Oc1ccc2oc(=O)c3c(c2c1)CCCN3C(=O)CN1CCOCC1 | inactive: 8.23% |  |
| COc1ccc2cc(C3(C)NC(=O)N(CC(=O)N4CCCCC4)C3=O)ccc2c1 (stereo unspecified) | inactive: 4.19% |  |
| CCc1nc(Nc2ccccc2)c2oc3ccccc3c2n1 | inactive: 0% |  |
| CC(C)C[C@@H](CN1CCC[C@@H]1CN1C(=O)C(=O)NC[C@@H]1Cc1ccccc1)N1C[C@H](Cc2ccc(O)cc2)N(CC2CCCCCC2)C(=O)C1=O |  | inconclusive: 22.4 µM [inhibitor, single point] |
| C/C(=N\NC(=O)CN1CCN(Cc2ccccc2)CC1)c1ccncc1 |  | inconclusive: 4.47 µM [inhibitor, full curve] |
| CS(=O)(=O)n1nc(OC(=O)c2cccc3ccccc23)cc1N |  | inconclusive: 12.6 µM [inhibitor, partial curve] |
| COc1ccc(OC)c(NC(=O)c2ccc(OC3CSC3)cc2)c1 |  | inconclusive: 11.2 µM [inhibitor, partial curve, poor fit] |
| Cc1ccc(N2C(=O)c3[nH]nc(-c4ccc(Cl)cc4)c3C2c2ccc(F)cc2)cc1 (stereo unspecified) |  | inconclusive: 14.1 µM [inhibitor, partial curve, poor fit] |
| N#Cc1c(F)cccc1N1CCOCC1 |  | inconclusive: 17.8 µM [inhibitor, single point] |
| O=C(Nc1cc(Cl)ccc1O)C1CC(c2ccccc2Cl)=NO1 (stereo unspecified) |  | inconclusive: 15.8 µM [inhibitor, single point] |
| O=S(=O)(Cc1ccc(Cl)cc1)N1CCN(Cc2ccccc2)CC1 |  | inconclusive: 2 µM [inhibitor, full curve, poor fit] |
| CCOc1ccc(NC(=O)Cn2ccn(-c3ccc(F)c(F)c3)c(=O)c2=O)cc1 | inactive: 8.11% |  |
| COc1ccc(CNC(=O)c2cccc(-n3cnc4cccnc43)c2C)cc1 | inactive: -13.5% |  |
| COc1cccc(C(=O)Nc2ccc3c(cc2=O)[C@@H](NC(C)=O)CCc2cc(OC)c(OC)c(OC)c2-3)c1 |  | inconclusive: 17.8 µM [inhibitor, partial curve, poor fit] |
| COCCn1c(SCC(=O)NC2CCCC2)nc2ccccc2c1=O |  | inconclusive: 35.5 µM [inhibitor, single point] |
| O=C(O)COc1ccccc1/C=N/NC(=O)CSc1nnc(SCc2ccc(Cl)cc2)s1 | inactive: -13.2% |  |
| COc1ccc(-c2cc(C(F)(F)F)nc(SCC(=O)NCc3cnn(C)c3C)n2)cc1OC | inactive: -1.67% |  |
| COc1ccc(/C=C2/SC(=S)N(c3ccc(S(=O)(=O)Nc4nccs4)cc3)C2=O)cc1 |  | inconclusive: 35.5 µM [inhibitor, partial curve, poor fit] |
